Over roughly 33,000 sequences, “E-score (-0.5 to 0.5)” has its median near -0.012; the highest 2% begin near 0.27. The list shows a part of the results.
The sequences below were run against T1, Vhr1 (UniProt P40522) (assay: PBM E-score (8-mer binding enrichment) (E-score (-0.5 to 0.5)); higher = stronger / more preferred TF binding; most listed sequences are background and not binding sites). Conditions: protein concentration: 200 nM; construct: GST-full length.
T1 sequence: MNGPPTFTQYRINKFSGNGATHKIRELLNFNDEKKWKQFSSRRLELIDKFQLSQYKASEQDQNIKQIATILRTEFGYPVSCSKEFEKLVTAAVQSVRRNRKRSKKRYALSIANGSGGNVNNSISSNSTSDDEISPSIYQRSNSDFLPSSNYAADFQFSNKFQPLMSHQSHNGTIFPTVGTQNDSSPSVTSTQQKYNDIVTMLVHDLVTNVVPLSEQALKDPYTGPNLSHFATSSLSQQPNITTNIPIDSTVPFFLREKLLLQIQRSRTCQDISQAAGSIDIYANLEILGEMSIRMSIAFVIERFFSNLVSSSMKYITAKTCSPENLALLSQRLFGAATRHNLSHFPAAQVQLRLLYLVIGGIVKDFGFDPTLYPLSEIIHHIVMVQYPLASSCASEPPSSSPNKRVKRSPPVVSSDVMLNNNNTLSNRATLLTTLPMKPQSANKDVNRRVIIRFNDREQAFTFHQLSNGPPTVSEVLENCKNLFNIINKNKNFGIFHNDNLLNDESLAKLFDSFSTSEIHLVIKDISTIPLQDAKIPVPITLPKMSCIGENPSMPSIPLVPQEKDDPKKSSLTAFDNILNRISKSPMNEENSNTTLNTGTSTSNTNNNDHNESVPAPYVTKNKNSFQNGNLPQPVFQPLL
Summary of the method: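 Yeast transcription factors, full-length or as DNA-binding domains, were expressed with a GST tag using PURExpress in vitro transcription/translation. At about 100-200 nM they were applied to universal all-10-mer Agilent arrays, double-stranded by primer extension on fresh or once-stripped slides. Fluorescent anti-GST detected bound protein, and masliner normalised the scans. E-scores for ungapped eight-base words, pooled with reverse complements, came from the Universal PBM Analysis Suite.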

Row | Sequence | PBM E-score
1 | ATTCCCCG | 0.0917
2 | CATTTGAG | -0.0627
3 | CACTGCTG | -0.0508
4 | AATTTCAT | -0.137
5 | CGGGACCA | -0.11
6 | AAAAAGCG | -0.121
7 | ACCGACAA | -0.034
8 | GGGGCTCA | -0.0835
9 | CACTTACA | 0.0795
10 | CCCTATCC | -0.0379
11 | AAAGAAAT | -0.254
12 | GCTGTCGA | -0.115
13 | CAACAGTA | 0.12
14 | AATATTCA | 0.157
15 | AAGTCCCA | -0.221
16 | CTGAGTGA | 0.215
17 | AGTAGATC | -0.0434
18 | GAGTTCCC | -0.109
19 | AGAGTATA | -0.093
20 | ATGAGCCG | -0.00802
21 | ACCTTCTG | 0.167
22 | AGAGGAAT | 0.016
23 | GATGCGTA | 0.0279
24 | CAGTTCTC | -0.208
25 | CAAGCTTG | -0.21

Row | Sequence | PBM E-score
26 | ATGCCCTG | -0.0849
27 | AGACTTTC | -0.378
28 | CTATCTCA | 0.0772
29 | AAACCCCC | -0.198
30 | ACATAATC | 0.25
31 | GTGTACTA | 0.119
32 | GTCGGAAA | 0.022
33 | GCGCCGCC | 0.156
34 | ATTCTACG | 0.109
35 | GTAAGGTA | -0.04
36 | ACAGCGCC | 0.057
37 | AAGACCTA | 0.00767
38 | ACAGGTCA | 0.00796
39 | CTCGGGTA | -0.00897
40 | CGCCCGTC | 0.216
41 | AATACGGG | -0.047
42 | ACCTTGGG | 0.0306
43 | AGGTGGCG | -0.0512
44 | TGTGTGAA | 0.148
45 | ACTTTCCG | -0.256
46 | AGCAATAC | -0.0388
47 | ATCAATTA | 0.137
48 | AATCTTAT | 0.0262
49 | AACATGTA | 0.138
50 | TCTACAAA | 0.063

Row | Sequence | PBM E-score
51 | AATGTAGT | 0.0873
52 | ACTTGAGA | -0.0874
53 | CACAAATC | 0.0828
54 | CATTGGTC | -0.0115
55 | AACGAAAG | -0.204
56 | GGGGTGGA | 0.0544
57 | AAAGTTCC | -0.282
58 | GTTTTCGA | -0.0299
59 | CACCTCTC | -0.117
60 | CTAAGATA | 0.0776
61 | CAGTTCGG | -0.0416
62 | ATGTGTCG | 0.29
63 | CGTGAGCC | 0.0956
64 | GAGCCGGC | -0.00127
65 | TCATGAAA | -0.0216
66 | AGTTTATG | -0.0791
67 | ATCGTCGC | -0.0805
68 | CAGCGCGG | 0.122
69 | ATCCTCCG | -0.0227
70 | GACAATAA | 0.0432
71 | CTAGTAAC | 0.172
72 | CGACACTC | 0.207
73 | ACCTCCTC | -0.188
74 | CGCATCGC | -0.194
75 | GAATCTCC | 0.00162

Row | Sequence | PBM E-score
76 | CCCTTCTC | -0.178
77 | CTTGTGTA | 0.0727
78 | CCGAAAGA | 0.0175
79 | CGACGGAG | 0.0734
80 | ATTGATGG | 0.0912
81 | CACCGGTG | -0.0803
82 | CCTACGAA | 0.0133
83 | GAAGGTCA | 0.0375
84 | CCGTTCAC | -0.164
85 | AGACCCCT | -0.216
86 | ATCAATGA | 0.0575
87 | GGCCCACC | 0.0435
88 | CGGACGAA | 0.133
89 | ACGGGCCC | -0.171
90 | GGACTTGA | -0.249
91 | ATTCTTGG | 0.0954
92 | ATTAAACC | 0.0183
93 | GACCCGCA | 0.109
94 | CCTACTCC | 0.00407
95 | GCGCTCCA | -0.0425
96 | ACGTACTA | 0.164
97 | CGATTCTC | 0.0478
98 | GAGGGGAA | -0.00828
99 | AGTTTGTC | -0.0447
100 | ATCGCTAC | -0.00539

Row | Sequence | PBM E-score
101 | ACGGTATG | 0.0197
102 | AGTTACCG | 0.0322
103 | TGAACCAA | 0.174
104 | AAATCAAA | -0.315
105 | ATCTATAG | -0.096
106 | CTGATCCA | 0.188
107 | ACATCAAG | 0.0485
108 | CGCGCTCC | 0.232
109 | AACTCCGG | 0.00164
110 | GAGTGCTA | -0.0187
111 | GCGTATAA | 0.115
112 | GTAGACAA | -0.042
113 | CATATTCG | 0.0798
114 | ACATCTGG | -0.00989
115 | GAAGGAGC | -0.368
116 | CTCCACGA | -0.0659
117 | GAATTGAC | -0.109
118 | ATGCCTTG | -0.0907
119 | CCAGGGCG | 0.0297
120 | AATATAGG | 0.173
121 | TCGAACAA | 0.019
122 | CGTGGGAC | 0.0659
123 | CTGGCTCA | 0.28
124 | GCGGGTCC | -0.00354
125 | GCTATTCC | -0.0794

Row | Sequence | PBM E-score
126 | CGTCCTTA | -0.0511
127 | AAAGAGCG | -0.0326
128 | AACAAGCC | -0.108
129 | GCCCCACA | 0.0562
130 | CACAAGTA | 0.0964
131 | AACCGCTC | 0.0198
132 | AGAGATCG | -0.11
133 | AGAAGCAA | 0.0863
134 | AGGATTGG | -0.0691
135 | CCCAACCG | -0.00458
136 | ACGTGTCT | 0.0218
137 | CCGAGGAA | -0.101
138 | AATCCACT | 0.065
139 | GCCTCGCA | 0.00196
140 | CATGTAAG | -0.0398
141 | CTAAGGCC | -0.281
142 | GGAGAGTA | -0.187
143 | CACTTATA | -0.121
144 | TCTTAGAA | -0.252
145 | ACTGCAAG | -0.0323
146 | CTGCCAGC | -0.132
147 | CCAGAGTA | 0.0867
148 | ACAATACG | -0.00306
149 | CGACTTCA | -0.0111
150 | ACACACTG | 0.163

Row | Sequence | PBM E-score
151 | ACCATCGC | 0.164
152 | ACTTTTGA | -0.211
153 | GCGTGTTA | -0.0428
154 | CCACTTTA | 0.166
155 | CCAAATTA | -0.00099
156 | AAACCGAA | -0.119
157 | CCCTAACG | -0.259
158 | GTTGCTTA | -0.0315
159 | AACTTTGC | -0.175
160 | CGAGTTTA | -0.0654
161 | AACATCCG | -0.0171
162 | AAAGTGCC | -0.213
163 | CATTGTTC | 0.0936
164 | GCTATTGA | -0.0724
165 | AATAGCCG | -0.118
166 | ACTTCATA | -0.0172
167 | ACAGTGCA | -0.00626
168 | CACGGATA | 0.232
169 | CACTAAGG | 0.0659
170 | ACACATAT | 0.22
171 | CTGAGGTA | 0.238
172 | CAATGACC | 0.105

Reference: the supplement of paper PMC3334620
